According to PubChem BioAssay AID360 (National Center for Advancing Translational Sciences (NCATS), 2006):
Screen size: about 48,000 compounds; about 550 (1.1%) were called active. Another 4% or so got no clear call; they are omitted. Rule as the data show it: active = potency below about 15 µM; inconclusive = mostly about 16 µM to 33 µM; inactive = weaker than that. The list shows a part of the results.

target: Lysosomal acid glucosylceramidase (Homo sapiens) (UniProt P04062); test: Glucocerebrosidase; conditions: purified enzyme, resorufin glucoside fluorescence (screen aimed at inhibitors), 20 min;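 also: the screen sought inhibitors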
Sequence of UniProt P04062 (P04062 whole entry, looked up): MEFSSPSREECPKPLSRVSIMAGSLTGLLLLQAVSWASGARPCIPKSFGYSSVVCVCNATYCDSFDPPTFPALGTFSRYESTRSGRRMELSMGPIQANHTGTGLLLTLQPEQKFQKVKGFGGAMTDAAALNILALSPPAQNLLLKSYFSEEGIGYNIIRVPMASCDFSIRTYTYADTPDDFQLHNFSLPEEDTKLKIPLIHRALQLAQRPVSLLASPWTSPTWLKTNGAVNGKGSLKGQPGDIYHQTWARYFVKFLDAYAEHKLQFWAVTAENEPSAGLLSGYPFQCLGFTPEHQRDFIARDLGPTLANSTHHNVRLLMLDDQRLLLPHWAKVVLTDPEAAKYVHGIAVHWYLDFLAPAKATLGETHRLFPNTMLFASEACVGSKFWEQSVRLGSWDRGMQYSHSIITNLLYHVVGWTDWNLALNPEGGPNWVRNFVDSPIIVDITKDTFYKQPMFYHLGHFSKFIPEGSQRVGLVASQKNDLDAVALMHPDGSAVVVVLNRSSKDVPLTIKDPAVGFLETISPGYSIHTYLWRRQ
In short: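 Compounds titrated against 0.2 nM normal enzyme, 30 uM resorufin beta-D-glucopyranoside substrate, citrate/phosphate buffer with taurocholate and tween-20, pH 5.9. Reaction ran 20 min at room temperature; fluorescence (Ex 548/Em 600) gave AC50.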
Potency is read from the fitted curve at half-maximal effect.

Potency, inactive:
CC(=O)c1sc(NC(=O)CN2C(=O)CCC2=O)nc1C > 76.9 µM
O=C(OC(C(=O)NCc1ccc2c(c1)OCO2)c1ccc(Cl)cc1)c1ccco1 (stereo unspecified) > 76.9 µM
O=c1nc(N2CCOCC2)nc2n1CCO2 > 76.9 µM
CCn1nnc(NC(=O)c2c(OC)cccc2OC)n1 > 76.9 µM
Cc1cc(C)n(-c2nc(SCC(=O)Nc3nccs3)c3c4c(sc3n2)COC(C)(C)C4)n1 > 76.9 µM
COc1ccc(-c2csc(C3=C(O)CN(Cc4ccc(S(N)(=O)=O)cc4)C3=N)n2)cc1OC > 76.9 µM
CC1(C)Cc2noc(N)c2C(C)(C)N1O > 76.9 µM
CN(c1ccccc1C(=O)N1CCCC1)S(C)(=O)=O > 76.9 µM
CCN(C(=O)CSc1ccc2c(c1)OCCO2)C1CCS(=O)(=O)C1 (stereo unspecified) > 76.9 µM
NC(=O)C1(N2CCCCC2)CCN(CC(=O)Nc2cc(Cl)ccc2Cl)CC1 > 76.9 µM
O=C(Cn1nnc(-c2cccs2)n1)OC1CCCCC1 > 76.9 µM
O=C(C1Cc2ccccc2CN1S(=O)(=O)c1cccs1)N1CCCCCC1 (stereo unspecified) > 76.9 µM
COc1ccc(C(=O)NCC(=O)OC2CCCCC2=O)cc1 (stereo unspecified) > 76.9 µM
Cc1noc(C)c1C(=O)OCC(=O)c1ccc[nH]1 > 76.9 µM
COc1ccccc1CNS(=O)(=O)c1cccc(S(=O)(=O)N2CCOCC2)c1 > 76.9 µM
Cc1occc1-c1nnc(SCC(=O)Nc2nccs2)n1CCc1ccccc1 > 76.9 µM
COC(=O)CSc1nnc(-c2ccncc2)n1N > 76.9 µM
O=C(NCC(=O)N(CCN1CCOCC1)C(C(=O)NC1CCCC1)c1cccnc1)c1cccs1 (stereo unspecified) > 76.9 µM
CCN(CC)c1ccc2c(c1)C(=O)N(C)C2=O > 76.9 µM
CCOC(=O)CN(C(=O)CSc1nnc(COc2ccc(OC)cc2)n1C)c1ccccc1 > 76.9 µM
CCOc1ccc2ccccc2c1C(=O)N1CCN(c2ccccc2)CC1 > 76.9 µM
Clc1ccc(Cc2nn3c(Cn4nnc5ccccc54)nnc3s2)cc1 > 76.9 µM
CC(C)c1nc(SCC(=O)N2CCCC2)c2ccccc2n1 > 76.9 µM
O=C(O)Cn1nnnc1-c1ccc(F)cc1 > 76.9 µM
O=c1c2cnn(-c3ccccc3)c2ncn1Cc1ccccn1 > 76.9 µM
CCOC(=O)N1CCC2(CC1)C(C#N)=C(N)Oc1n[nH]c(CSc3ccc(C)cc3)c12 > 76.9 µM
CCOC(=O)CSC1=Nc2ccccc2C2=NC(CC(=O)NCc3ccccc3)C(=O)N12 (stereo unspecified) > 76.9 µM
Cc1ccc(-c2noc(CCC(=O)Nc3ccc(C)cn3)n2)cc1 > 76.9 µM
C=CCn1c(SCC(=O)NCc2ccc3c(c2)OCO3)nnc1C1CCCCC1 > 76.9 µM
CCOC(=O)Cc1csc(NC(=O)CSc2nnc(Cc3csc(N)n3)n2C)n1 > 76.9 µM
CCC(=O)N1CCc2cc(S(=O)(=O)NC(C(=O)NCc3ccccc3)C(C)C)ccc21 (stereo unspecified) > 76.9 µM
NC(=O)COC(=O)C(Cc1ccccc1)NS(=O)(=O)c1ccccc1F (stereo unspecified) > 76.9 µM
O=C(CSc1nc2ccccc2o1)Nc1nc2ccccc2s1 > 76.9 µM
Cc1ccccc1NS(=O)(=O)c1ccc2[nH]cc(C(=O)NCCCN3CCOCC3)c(=O)c2c1 > 76.9 µM
Cc1cc2nnc(SCC(=O)NCc3cccs3)n2c(N)n1 > 76.9 µM
COc1cccc(C(=O)N(Cc2nc(-c3ccc(C)cc3)no2)C(C)C)c1 > 76.9 µM
O=C1c2cccnc2C(O)N1Cc1ccco1 (stereo unspecified) > 76.9 µM
CC(=O)Nc1nonc1-c1nc2ccccc2n1Cc1ccccn1 > 76.9 µM
O=C(Cc1ccc(Cl)cc1)NCCN1CCCC1 > 76.9 µM
O=C(OCCN1C(=O)c2ccccc2C1=O)c1ccc(S(=O)(=O)N2CCCCCC2)cc1 > 76.9 µM
CCOc1ccc(-c2noc(-c3cccnc3)n2)cc1OC > 76.9 µM
C/C(CCc1oc2ccccc2c1-c1ccc(C)o1)=N/O > 76.9 µM
Cc1ccc(C(C)C)c(OCc2nnc3n2CCCCC3)c1 > 76.9 µM
Cc1cc(C)nc(SCc2nnc(SCC(=O)N3CCCc4ccccc43)o2)n1 > 76.9 µM
COc1cc(NC(=O)c2ccc(C)cc2)c(OC)cc1NC(=O)CN1CCOCC1 > 76.9 µM
O=C1c2ccccc2C(=O)C12Cc1ccccc1N1CCN(c3ccccc3)CC12 (stereo unspecified) > 76.9 µM
COc1ccc(-c2nc3ccccc3c(=O)n2CCCn2ccnc2)cc1 > 76.9 µM
COC(=O)Nc1nnc(SCc2ccc(C)cc2)s1 > 76.9 µM
COc1ccc(NC(=O)c2ccco2)cc1NC(=O)c1ccco1 > 76.9 µM
CCOC(=O)c1nnsc1NC(C)=O > 76.9 µM
CC1CN(C2CCCCC2)c2nc3c(c(=O)n(C)c(=O)n3C)n2C1 (stereo unspecified) > 76.9 µM
Cc1cc(C(=O)Cn2nnc3ccccc3c2=O)c(C)n1Cc1cccs1 > 76.9 µM
O=C(O)c1ccc(COc2ccc(Cl)cc2)o1 > 76.9 µM
COc1cccc2cc(C(=O)N(C)C3CCN(C)CC3)c(=O)oc12 > 76.9 µM
COc1ccc(C2(C(F)(F)F)NC(=O)N(C)C(=O)N2C)cc1 (stereo unspecified) > 76.9 µM
O=C(CSc1nnc2scc(-c3ccc(Cl)cc3)n12)NCc1ccco1 > 76.9 µM
CCCS(=O)(=O)N1CCCC(c2nc(-c3cccc(OC)c3)no2)C1 (stereo unspecified) > 76.9 µM
Cc1ccccc1-n1ncc2c(SCC(=O)NCc3cccs3)ncnc21 > 76.9 µM
CN(C(=O)COC(=O)c1nc(-c2ccccc2)n(-c2ccccc2)n1)C1CCS(=O)(=O)C1 (stereo unspecified) > 76.9 µM
Clc1ccc(Cl)c(-c2nn3c(COc4ccccc4)nnc3s2)c1 > 76.9 µM
CCOc1ccccc1NC(=O)N1CCC(NC(=O)c2ccccc2C)CC1 > 76.9 µM
Clc1cccc(-c2nnc3sc(-c4ccccc4)nn23)c1 > 76.9 µM
CC(OC(=O)c1cc[n+]([O-])cc1)C(=O)Nc1ccc(Cl)cn1 (stereo unspecified) > 76.9 µM
CC1(C(=O)NC2CCCC2)CCC(=O)N1Cc1ccc2c(c1)OCO2 (stereo unspecified) > 76.9 µM
CCCCNC(=O)c1cc(-c2ccc(OC)cc2)on1 > 76.9 µM
Cc1c(C(=O)O)oc2c1ccc1ccccc12 > 76.9 µM
COc1ccc(N2C(=O)[C@@H]3Cc4ccccc4CN3C2=O)cc1 > 76.9 µM
CCOc1ccc(NC(=O)Cn2nnc(-c3ccccc3NC(=O)CC)n2)cc1 > 76.9 µM
O=C(c1ccc2c(c1)OCO2)N(c1ccc(Cl)cc1)C1C=CS(=O)(=O)C1 (stereo unspecified) > 76.9 µM
CC1(C)NC(=O)N(c2ccccc2Cl)C1(C)NO (stereo unspecified) > 76.9 µM
O=C(CCn1c(=O)sc2ccccc21)Nc1cccnc1 > 76.9 µM
CCn1nnnc1SCC(=O)Nc1nnc(C(C)C)s1 > 76.9 µM
CC(C)N(C(=O)COC(=O)c1ccccc1C(=O)N1CCN(c2ccc(F)cc2)CC1)C(C)C > 76.9 µM
c1ccc(-c2nc3nonc3c3nc4ccccc4n23)cc1 > 76.9 µM
O=C(NC1CCCCCCC1)C1CCN(S(=O)(=O)N2CCCC2)CC1 > 76.9 µM
N#CCSc1nnc(N)s1 > 76.9 µM
O=C(O)Cn1nc(C(F)(F)F)c2c1CCCCC2 > 76.9 µM
CC1CCN(S(=O)(=O)c2cccc(-c3nnc(-c4cccnc4)o3)c2)CC1 > 76.9 µM
O=C(c1oc(=O)c2ccccc2c1-c1ccccc1)N1CCOCC1 > 76.9 µM
CCC(C)(C)n1nnnc1C(c1cccs1)N1CCN(c2nc3ccccc3s2)CC1 (stereo unspecified) > 76.9 µM
O=C(O)COc1ccc2c(-c3ccccc3)cc(=O)oc2c1 > 76.9 µM
Cc1c(NC(=O)CN2c3cccc4cccc(c34)S2(=O)=O)c(=O)n(-c2ccccc2)n1C > 76.9 µM
COC(=O)c1nc(NC2=NCCCCC2)n[nH]1 > 76.9 µM
C=CCn1c(SCc2ccccc2)nnc1-c1cccnc1 > 76.9 µM
Cc1cc2ncn(S(=O)(=O)N3CCCCC3)c2cc1C > 76.9 µM
C=CCN(CC=C)S(=O)(=O)c1ncn[nH]1 > 76.9 µM
Cc1nc(-c2ccccc2O)n(S(=O)(=O)N(C)C)n1 > 76.9 µM
COc1ccccc1NC(=O)CSc1nc2sc(C)c(C)c2c(=O)n1Cc1ccco1 > 76.9 µM
COc1ccc2[nH]c(=O)c(CN(C(=O)c3ccncc3)C(C)(C)C)cc2c1 > 76.9 µM
CC(C)CCN1C(=O)c2ccc(C(=O)NCc3ccco3)cc2C1=O > 76.9 µM
COCCCNC(=O)C(Cc1ccccc1)NS(=O)(=O)c1ccc2c(c1)c(=O)n(C)c(=O)n2C (stereo unspecified) > 76.9 µM
